Experimental data: PubChem BioAssay AID2546 (National Center for Advancing Translational Sciences (NCATS), 2010)
Among all 310,000 compounds or so, about 11,000 (3.5%) were called active. The shares of active, inactive and inconclusive entries below differ from those in the screen. Calls follow the shape of the dose curve; as a rule, active = well fitted inhibition curve with a large enough effect; inconclusive = small, poorly fitted or top-dose-only effect, or effect the other way; inactive = flat fitted curve, though single readings scatter. No potency is given beside an inconclusive call; the fits are too rough.

test: VP16 counterscreen qHTS for inhibitors of ROR gamma transcriptional activity; settings: Drosophila S2 Gal4-VP16 UAS-luciferase, luminescence, 20 h; activity, negative = inhibition: at 53.6 µM (top of the series);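 also: Gal4-VP16 expression switched on by copper sulfate through the metallothionein promoter; nearly all actives have a fitted effect of over 50% in size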
% is scaled to controls: 0 for no effect and ±100 for the full control effect; potency is read from the fitted curve at half-maximal effect; tags tell the direction and shape of the fitted curve.

SMILES	activity, negative = inhibition	Potency
COc1cc(OC)cc(C(=O)NNC(=O)c2cc3ccccc3cc2O)c1	inactive: 3.52%	
COc1ccc(C2CC(c3cccs3)=NN2C(=O)CSC2=NN3CCCC(=O)N=C3S2)cc1 (stereo not drawn)	inactive: 15.3%	
CC(=O)Nc1sc(N/N=C\c2cccc(Cl)c2)nc1-c1cccs1		inconclusive [inhibitor, single point]
O=Cc1s/c(=N\S(=O)(=O)c2ccccc2)n(CCCCl)c1Cl		inconclusive [inhibitor, single point]
O=c1oc(-c2ccc(F)cc2)nc2ccsc12	inactive: -29.5%	
CCC/C=N/NC(=O)c1ccc(F)cc1		inconclusive [activator, single point]
N=C(N)N	inactive: 6.39%	
CC(=O)Nc1ccc(S(=O)(=O)N2CCN=C2SCc2ccc(F)cc2)cc1		inconclusive [inhibitor, single point]
COc1cccc(OCC(O)CN2CCN(c3ccccn3)CC2)c1 (stereo not drawn)	inactive: 5.86%	
COc1ccc(CNC(=O)Nc2cccc3ccccc23)cc1		inconclusive [inhibitor, full curve, poor fit]
O=C(Cn1cnc2sc(-c3ccccc3)cc2c1=O)NCCc1ccccc1		inconclusive [inhibitor, single point]
CCc1ccc(-c2nc(CSCC(=O)NC3CC3)c(C)o2)cc1		inconclusive [inhibitor, single point]
COc1cc(NC(=S)Nc2cccc(Cl)c2Cl)c(OC)cc1Cl		inconclusive [inhibitor, single point]
Cc1ccc(/C=N/n2c(-c3cccs3)n[nH]c2=S)cc1		inconclusive [inhibitor, partial curve]
COc1ccc(NC(=O)Nc2ccccc2)cc1S(=O)(=O)N1CCCCC1		inconclusive [inhibitor, single point]
CCCCCCC(=O)N(O)C1CC(=O)N(c2ccc(Br)cc2)C1=O (stereo not drawn)		inconclusive [inhibitor, single point]
Cn1c(CSc2nc3ccccc3s2)nc2ccccc21		inconclusive [inhibitor, single point]
Cc1oc2c(C)c3oc(=O)c(CCC(=O)N4CCC(C(=O)NCCC(=O)O)(c5ccccc5)CC4)c(C)c3cc2c1C	inactive: -2.94%	
COc1cc(OC)c(NC(=S)Nc2cccc(C)c2)cc1Cl		inconclusive [inhibitor, single point]
CC(=O)Nc1ccc(S(=O)(=O)NCCC(=O)OCc2ccc([N+](=O)[O-])cc2)cc1		inconclusive [inhibitor, single point]
CN(Cc1ccccc1)C(=O)c1[nH]cnc1C(=O)N[C@@H](Cc1ccccc1)C(=O)OC(C)(C)C		inconclusive [inhibitor, single point]
COc1cc2c(cc1OC)CN(c1ccc3ccccc3n1)CC2		inconclusive [inhibitor, single point]
COc1cc(/C=N/NC(=O)c2ccc(N)cc2)ccc1OC(=O)c1cccc(C)c1	inactive: -9.45%	
CCOC(=O)c1ccc(N2C(=O)c3cccc4c(C(=O)O)ccc(c34)C2=O)cc1	inactive: -1.77%	

SMILES	activity, negative = inhibition	Potency
COCCNC(=S)N(c1ccccc1)C(C)C	inactive: 7.67%	
COc1ccccc1N(C(=O)c1snc(C(N)=O)c1N)C(C(=O)NC1CCCCC1)c1cccc(OC)c1OC (stereo not drawn)	inactive: -12.6%	
Cn1nc(C(=O)OCC(=O)NC2CCS(=O)(=O)C2)c2ccccc2c1=O (stereo not drawn)	inactive: 0.0086%	
CC1(C)COC(/C=C/c2ccc([N+](=O)[O-])cc2)=N1		inconclusive [inhibitor, single point]
Cn1cccc1/C=N\NC(=O)C1COc2ccc(C(C)(C)C)cc2O1 (stereo not drawn)		inconclusive [inhibitor, single point]
O=c1c(Cl)c(Cl)cnn1Cc1ccccc1Cl		inconclusive [inhibitor, partial curve, poor fit]
N#Cc1sc2nc(-c3cccs3)cc(-c3ccc(Cl)cc3)c2c1N	inactive: -3.39%	
O=C(O)c1ccc(N/N=C/c2ccc(-c3ccc(Br)cc3)o2)cc1	inactive: -3.95%	
Cc1c(Cl)cccc1NC(=S)NCC1COc2ccccc2O1 (stereo not drawn)		inconclusive [inhibitor, single point]
COc1ccc(C(=O)N2CCC3(CCN(C(=O)Nc4cccc(F)c4)CC3)CC2)cc1	inactive: 8.64%	
C/C(=N\Nc1nccnc1Cl)c1ccc(Br)cc1		inconclusive [inhibitor, single point]
O=C(CSc1nnc(-c2cccnc2)n1C1CCCCC1)NC1CCCCC1	inactive: -2.49%	
Cc1ccc(SCc2ccc(C(=O)Nc3nccs3)o2)cc1		inconclusive [inhibitor, single point]
COc1ccccc1CNC(=O)CCc1c(C)nc2cc(-c3ccccc3OC)nn2c1C		inconclusive [inhibitor, partial curve]
NNC(=O)COc1ccc(-c2n[nH]c(C(F)(F)F)c2-c2ccc(Br)cc2)c(O)c1		inconclusive [inhibitor, single point]
C/C(Cn1nc([N+](=O)[O-])cc1C)=N\NC(=O)COc1ccc(Cl)cc1Cl		inconclusive [inhibitor, single point]
C/C(=N\NC(=O)COc1cccc(C)c1)c1ccc2ccccc2c1O		active: 3.98 µM
COc1ccc(CNCCC(c2ccc(F)cc2)c2ccc(OC(C)C)cc2)cc1OC (stereo not drawn)		inconclusive [inhibitor, single point]
CS(=O)(=O)c1ccc2nc(NC(=O)Nc3cccc(Cl)c3)sc2c1		inconclusive [inhibitor, full curve]
O=C(Cn1cnc2sc(-c3ccccc3)cc2c1=O)NCc1ccccc1	inactive: 1.22%	
CN1CCC2(CC1)CCN(C(=O)c1cccc(F)c1)CC2	inactive: 5.99%	
CCN(CC)C[C@@H]1CCCCN1CC(=O)N1c2ccccc2C(=O)Nc2cccnc21	inactive: 2.69%	
COC(=O)c1sccc1NC(=S)NCc1ccc(Cl)cc1		active: 1.26 µM
O=C(COC(=O)c1cc(-c2cccnc2)nc2ccccc12)Nc1ccc(F)cc1F	inactive: -16%	
